Screen size: about 310,000 compounds; about 11,000 (3.5%) were called active. The shares of active, inactive and inconclusive entries below differ from those in the screen. Calls follow the shape of the dose curve; as a rule, active = well fitted inhibition curve with a large enough effect; inconclusive = small, poorly fitted or top-dose-only effect, or effect the other way; inactive = flat fitted curve, though single readings scatter. No potency is given beside an inconclusive call; the fits are too rough.
experiment: VP16 counterscreen qHTS for inhibitors of ROR gamma transcriptional activity; details: Drosophila S2 Gal4-VP16 UAS-luciferase, luminescence, 20 h; series mostly up to 53.6 µM;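 also: Gal4-VP16 expression switched on by copper sulfate through the metallothionein promoter; nearly all actives have a fitted effect of over 50% in size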
Potency is read from the fitted curve at half-maximal effect; tags tell the direction and shape of the fitted curve.

| SMILES | Potency |
| --- | --- |
| CCc1n[nH]c(=S)n1/N=C/C(C)=C\c1ccccc1 | active: 5.62 µM |
| O=C1CSC(=NC2CCCCC2)N1 | inconclusive [inhibitor, single point] |
| CN1/C(=C\C(=O)c2cncc(Br)c2)C(C)(C)c2ccccc21 | active: 11.2 µM |
| COc1cc(C(=O)Nc2ccncc2)c([N+](=O)[O-])cc1OC | inconclusive [inhibitor, single point] |
| S=C(Nc1cccc2ccccc12)NN1CCOCC1 | inconclusive [inhibitor, single point] |
| CCCCC(=O)Nc1nc2ccc(C(=O)OC)cc2s1 | inconclusive [inhibitor, single point] |
| N/C(=N\OC(=O)c1ccc(Br)o1)c1ccccn1 | inactive |
| Cc1nc2c3ccccc3nc(SCC(=O)c3ccc(Cl)cc3)n2n1 | inconclusive [inhibitor, single point] |
| COc1ccc(/C=C(\C#N)C(=O)OCC(=O)Nc2c(C)cccc2C(C)C)cc1 | inconclusive [inhibitor, partial curve, poor fit] |
| OCCC1CN(Cc2cnc(-c3ccc(Cl)cc3)nc2)CCN1C1CCCC1 (centres undefined) | inactive |
| COCCCNC(=S)NNC(=O)Cn1nc(C)c(Br)c1C | active: 11.2 µM |
| Cn1nc(CC(=O)Nc2ccc(N3CCN(C(=O)OC(C)(C)C)CC3)cc2)c2ccccc2c1=O | active: 2.51 µM |
| Cc1cc(=O)oc2c3c(cc(OCC(=O)NCc4ccco4)c12)OC(C)(C)CC3 | inactive |
| C/C(=N\NC(=S)Nc1ccccc1C)c1ccc(O)cc1 | inconclusive [inhibitor, single point] |
| CCn1c(NC(=O)c2ccc(COc3ccc(C)cc3[N+](=O)[O-])o2)nc2ccccc21 | active: 5.01 µM |
| O=C(NC1(C(F)(F)F)C(=O)Nc2c1c(=O)[nH]c(=O)n2-c1ccc(F)cc1)c1cccnc1 (centres undefined) | inconclusive [inhibitor, full curve, poor fit] |
| COc1ccc(CNC(=O)C2Cc3ccccc3CN2C(=O)c2ccco2)cc1 (centres undefined) | inactive |
| COc1ccc(NC(=O)/C(Cl)=C(/Cl)S(=O)(=O)Cc2ccc(C)cc2)cn1 | active: 3.16 µM |
| Brc1ccccc1-n1nnc(-c2ccnc3ccccc23)n1 | inconclusive [inhibitor, single point] |
| N=c1c(S(=O)(=O)c2ccc(Br)cc2)cc2c(=O)n3ccccc3nc2n1Cc1ccco1 | inactive |
| COc1ccccc1N1CCN(C(=O)C2CCCN(S(=O)(=O)c3ccc4c(c3)CCCN4C(C)=O)C2)CC1 (centres undefined) | active: 7.94 µM |
| O=S(=O)(NC1CC1)c1ccc(S(=O)(=O)N2CCCC3(CCCCC3)C2)cc1 | inconclusive [inhibitor, single point] |
| COc1ccccc1NC1=CC(=O)CC(c2ccccc2)C1 (centres undefined) | inconclusive [inhibitor, single point] |

| SMILES | Potency |
| --- | --- |
| COc1ccccc1C(=O)NC(=S)Nc1ccc(N2CCOCC2)c(Cl)c1 | inconclusive [activator, single point] |
| CN(c1ccc(C(=O)Nc2ccc(Cl)cn2)cc1)S(=O)(=O)c1ccccc1 | inconclusive [inhibitor, single point] |
| CC1CCN(CC(=O)Nc2ccccc2Sc2ccccc2)CC1 | inconclusive [activator, single point] |
| O=[N+]([O-])c1ccc(O)c(/C=N/n2cnc3ccccc32)c1 | inconclusive [inhibitor, single point] |
| O=C(NCc1ccco1)C1CCN(C(=O)c2cc3sccc3n2Cc2ccc(Cl)cc2)CC1 | inconclusive [inhibitor, single point] |
| O=C(Cn1c2ccc(F)cc2c2nc3n(c(=O)c21)CCS3)Nc1ccc(Cl)cc1F | inconclusive [inhibitor, single point] |
| CC(=O)Nc1ccc(S(=O)(=O)n2cnc3cc(C)c(C)cc32)cc1 | active: 11.2 µM |
| Cc1nn(C)c(Cl)c1NC(=O)OCc1ccccc1 | inconclusive [inhibitor, single point] |
| Cc1ccc2sc(NNC(=O)c3cc(-c4cccs4)nc4ccccc34)nc2c1C | active: 17.8 µM |
| COc1ccc(-n2cc(CNCC3CC(=O)N(C4CC4)C3)c(-c3ccccc3Cl)n2)cc1 (centres undefined) | inconclusive [inhibitor, single point] |
| O=C(C1CCCO1)N1CCN(c2c3c(nc4cc(-c5ccc(F)cc5)nn24)CCC3)CC1 (centres undefined) | inactive |
| CCOC(=O)Cn1nc(C)c(NC(=O)c2ccc(Cl)c([N+](=O)[O-])c2)c1C | inconclusive [activator, full curve] |
| O=C(N/N=C/C=C/c1ccc2c(c1)OCO2)c1ccc([N+](=O)[O-])cc1 | active: 10 µM |
| O=C(NC(=S)NCC1CCCO1)c1cccc([N+](=O)[O-])c1 (centres undefined) | inconclusive [inhibitor, single point] |
| COc1ccc(N=c2scc(-c3ccc(S(=O)(=O)N4CCOCC4)cc3)n2CCCO)cc1 | active: 5.62 µM |
| Cc1nn(CCC(=O)NNC(=S)Nc2ccc(F)cc2)c(C)c1Br | inconclusive [inhibitor, partial curve] |
| O=C(O)c1ccccc1Sc1c([N+](=O)[O-])cc(C(F)(F)F)cc1[N+](=O)[O-] | inconclusive [inhibitor, single point] |
| Cc1ccc(-c2noc(CCCC(=O)NC3CCCCC3)n2)cc1 | inconclusive [inhibitor, single point] |
| COc1cc(-c2nc(S(=O)(=O)c3ccc(C)cc3)c(N3CCOCC3)o2)cc(OC)c1OC | inactive |
| COC(=O)C(Cc1ccc(O)cc1)NC(=O)CCc1nc2ccccc2s1 (centres undefined) | inactive |
| CCN(CC)P(=O)(Nc1ccccc1Br)c1ccc(N(C)C)cc1NC(=O)c1ccco1 (centres undefined) | inactive |
| Nc1c2c(nc3ccc(Br)cc13)N(Cc1ccccc1)CC2 | inactive |
| CCOC(=O)NC(=O)C(=CNNc1ncc(C(F)(F)F)cc1Cl)C(=O)NC(=O)OCC | inconclusive [inhibitor, single point] |

| SMILES | Potency |
| --- | --- |
| O=C(NCCc1c[nH]c2ccccc12)c1ccc(F)cc1F | inconclusive [inhibitor, single point] |
| COc1cccc(OC)c1C(=O)Oc1ccc2c(c1)O/C(=C\c1ccncc1)C2=O | inconclusive [inhibitor, single point] |
| COC(=O)c1cc(C(=O)Nn2cnnc2)cc([N+](=O)[O-])c1 | inactive |
| Cc1ccc(Cl)cc1NC(=O)c1cc2ccccc2cc1O | active: 2.82 µM |
| C/C(=N\S(=O)(=O)c1ccc(C)cc1)N1CCN(S(=O)(=O)c2ccccc2)C1C(C)C (centres undefined) | inactive |
| c1cn(-c2ncnc3ccc(-c4ccoc4)cc23)cn1 | inconclusive [inhibitor, partial curve] |
| COc1ccc(-c2noc(CCC(=O)NCCN(C)Cc3ccccc3)n2)cc1 | inconclusive [inhibitor, partial curve] |
| CC(NC(=O)CSc1nc2c(c(C(F)(F)F)n1)CCc1ccccc1-2)c1ccccc1 (centres undefined) | inconclusive [inhibitor, single point] |
| COc1ccc(/C=N/NC(=O)Nc2cccc3nsnc23)cc1 | inconclusive [inhibitor, single point] |
| CCNC(=S)Nc1ccc(OC(F)(F)F)cc1 | inconclusive [inhibitor, single point] |
| Cc1nc(=S)n(-c2ccccc2)[nH]1 | inconclusive [inhibitor, single point] |
| COc1cc(/C=N/NC(=O)c2ccc(COc3cc(C)ccc3C(C)C)cc2)cc(OC)c1O | active: 15.8 µM |
| CCOC(=O)C1(CC2CC2)CCN(Cc2cn(C)c3ccccc23)CC1 | inconclusive [inhibitor, single point] |
| Cc1cc(/C=C2\SC(=S)N(Cc3ccco3)C2=O)c(C)n1-c1cccnc1 | inconclusive [inhibitor, single point] |
| CCOc1ccc(-n2ccnc2SCC(=O)N2CCCc3ccccc32)cc1 | inconclusive [inhibitor, single point] |
| CC(C)C[C@H](NC(=O)[C@H](Cc1ccccc1)C[C@@H](O)[C@H](Cc1ccccc1)NC(=O)OC(C)(C)C)C(=O)N[C@@H](Cc1ccccc1)C(N)=O | inconclusive [inhibitor, full curve, poor fit] |
| Clc1cnc(N/N=C/c2cccs2)c(Cl)c1 | inconclusive [inhibitor, single point] |
| COC(=O)c1ccc2nc(-c3cccc(N)c3)cn2c1 | active: 7.94 µM |
| CCN(CC)c1ccc(N=Cc2ccc(N(CC)CC)cc2O)cc1 | inconclusive [inhibitor, single point] |
| CSc1ccc(S(=O)(=O)N2CCC(C(=O)NCc3ccco3)CC2)cc1 | inconclusive [inhibitor, single point] |
| Cc1cc2ncc(-c3ccccc3)nc2cc1C | inconclusive [inhibitor, single point] |
| CN(C(=O)c1cccnc1)c1nnc(-c2ccccn2)s1 | inconclusive [inhibitor, single point] |
| O=C(CSc1nnc(NC(=O)c2ccccc2Cl)s1)NC1CC1 | inconclusive [inhibitor, single point] |
